# Results as given in the supplement of paper PMC8728848.
# The list shows a part of the results.
# B1: UEA-I (Ulex europaeus), P22972 (protein)
# chain: SDDLSFKFKNFSQNGKDLSFQGDASVIETGVLQLNKVGNNLPDETGGIARYIAPIHIWNCNTGEVASFITSFSFFMETSANPKAATDGLTFFLAPPDSPLRRAGGYFGLFEDTKDNDSSYQTVAVEFDTIGSPVNFDDPGFPHIGIDVNRVKSINAERWNKRYGLNNVANVEIIYEASSKTLTASLTYPSDQTSISVTSIVDLKEILPEWVSVGFSGGTYIGRQATHEVLNWYFTSNLIN
# Experiments:
# Assay in all cases: glycan array binding signal (z-score within array); higher = stronger binding
# Conditions in all cases: glycan notation: IUPAC condensed, linker removed
# [1] = target: GlcNAc(b1-2)Man(a1-3)[GlcNAc(b1-2)Man(a1-6)]Man(b1-4)GlcNAc(b1-4)[Fuc(a1-6)]GlcNAc
# Summary of the method: (§1)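 Glycan array data came from 3228 arrays in the Consortium for Functional Glycomics database, and only arrays with an available protein sequence were kept. Glycan names were put into IUPAC-condensed notation, and columns mapping to the same glycan were averaged. The binding signal is a within-array Z-score, averaged across arrays of one protein sequence run at different concentrations or buffers and across linkers. A negative Z-score can be read as non-binding.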
# [2] = target: GlcNAc(b1-2)Man(a1-3)[GlcNAc(b1-4)][GlcNAc(b1-2)Man(a1-6)]Man(b1-4)GlcNAc(b1-4)GlcNAc
# Summary of the method: as §1
# [3] = target: GlcNAc(b1-2)[GlcNAc(b1-4)]Man(a1-3)[GlcNAc(b1-2)Man(a1-6)]Man(b1-4)GlcNAc(b1-4)GlcNAc
# Summary of the method: as §1
# [4] = target: GlcNAc(b1-2)[GlcNAc(b1-4)]Man(a1-3)[GlcNAc(b1-4)][GlcNAc(b1-2)Man(a1-6)]Man(b1-4)GlcNAc(b1-4)GlcNAc
# Summary of the method: as §1
# [5] = target: GlcNAc(b1-2)[GlcNAc(b1-4)]Man(a1-3)[GlcNAc(b1-4)][GlcNAc(b1-2)[GlcNAc(b1-6)]Man(a1-6)]Man(b1-4)GlcNAc(b1-4)GlcNAc
# Summary of the method: as §1
# [6] = target: GlcNAc(b1-2)[GlcNAc(b1-6)]Man(a1-6)[GlcNAc(b1-2)Man(a1-3)]Man(b1-4)GlcNAc(b1-4)GlcNAc
# Summary of the method: as §1
# [7] = target: GlcNAc(b1-2)[GlcNAc(b1-6)]Man(a1-6)[GlcNAc(b1-2)Man(a1-3)][GlcNAc(b1-4)]Man(b1-4)GlcNAc(b1-4)GlcNAc
# Summary of the method: as §1
# GlcNAc(b1-3)Gal = target: GlcNAc(b1-3)Gal
# Summary of the method: as §1
# [8] = target: GlcNAc(b1-3)Gal(b1-3)GalNAc
# Summary of the method: as §1
# GlcNAc(b1-3)Gal(b1-4)Glc = target: GlcNAc(b1-3)Gal(b1-4)Glc
# Summary of the method: as §1
# [9] = target: GlcNAc(b1-3)Gal(b1-4)GlcNAc
# Summary of the method: as §1
# [10] = target: GlcNAc(b1-3)Gal(b1-4)GlcNAc(b1-3)Gal(b1-4)GlcNAc
# Summary of the method: as §1
# GlcNAc(b1-3)GalNAc = target: GlcNAc(b1-3)GalNAc
# Summary of the method: as §1
# GlcNAc(b1-3)Man = target: GlcNAc(b1-3)Man
# Summary of the method: as §1
# [11] = target: GlcNAc(b1-3)[GlcNAc(b1-4)][GlcNAc(b1-6)]GlcNAc
# Summary of the method: as §1
# [12] = target: GlcNAc(b1-3)[GlcNAc(b1-6)]Gal(b1-4)GlcNAc
# Summary of the method: as §1
# [13] = target: GlcNAc(b1-3)[GlcNAc(b1-6)]GalNAc
# Summary of the method: as §1
# [14] = target: GlcNAc(b1-4)Gal(b1-4)GlcNAc
# Summary of the method: as §1
# GlcNAc(b1-4)GlcNAc = target: GlcNAc(b1-4)GlcNAc
# Summary of the method: as §1
# [15] = target: GlcNAc(b1-4)GlcNAc(b1-4)GlcNAc
# Summary of the method: as §1
# [16] = target: GlcNAc(b1-4)GlcNAc(b1-4)GlcNAc(b1-4)GlcNAc(b1-4)GlcNAc
# Summary of the method: as §1
# [17] = target: GlcNAc(b1-4)GlcNAc(b1-4)GlcNAc(b1-4)GlcNAc(b1-4)GlcNAc(b1-4)GlcNAc
# Summary of the method: as §1
# [18] = target: GlcNAc(b1-4)[GlcNAc(b1-6)]GalNAc
# Summary of the method: as §1
# [19] = target: GlcNAc(b1-6)Gal(b1-4)GlcNAc
# Summary of the method: as §1
# GlcNAc(b1-6)GalNAc = target: GlcNAc(b1-6)GalNAc
# Summary of the method: as §1
# GlcNAc3Prop(b1-4)GlcNAc = target: GlcNAc3Prop(b1-4)GlcNAc
# Summary of the method: as §1
# [20] = target: GlcNAc6S(b1-3)Gal(b1-4)GlcNAc
# Summary of the method: as §1
# Kdn(a2-3)Gal(b1-3)GalNAc = target: Kdn(a2-3)Gal(b1-3)GalNAc
# Summary of the method: as §1
# Kdn(a2-3)Gal(b1-3)GlcNAc = target: Kdn(a2-3)Gal(b1-3)GlcNAc
# Summary of the method: as §1
# Kdn(a2-3)Gal(b1-4)Glc = target: Kdn(a2-3)Gal(b1-4)Glc
# Summary of the method: as §1
# Kdn(a2-3)Gal(b1-4)GlcNAc = target: Kdn(a2-3)Gal(b1-4)GlcNAc
# Summary of the method: as §1
# [21] = target: Kdn(a2-3)Gal(b1-4)[Fuc(a1-3)]GlcNAc
# Summary of the method: as §1
# Kdn(a2-6)Gal(b1-4)GlcNAc = target: Kdn(a2-6)Gal(b1-4)GlcNAc
# Summary of the method: as §1
# [22] = target: Man(a1-2)Man(a1-2)Man(a1-3)Man
# Summary of the method: as §1
# [23] = target: Man(a1-2)Man(a1-2)Man(a1-6)[Man(a1-3)]Man
# Summary of the method: as §1
# Man(a1-2)Man(a1-3)Man = target: Man(a1-2)Man(a1-3)Man
# Summary of the method: as §1
# [24] = target: Man(a1-2)Man(a1-3)[Man(a1-2)Man(a1-6)]Man
# Summary of the method: as §1
# [25] = target: Man(a1-2)Man(a1-3)[Man(a1-2)Man(a1-6)]Man(a1-6)[Man(a1-2)Man(a1-2)Man(a1-3)]Man
# Summary of the method: as §1
binder,measurement,setting,value
B1,glycan array binding signal (z-score),[1],-0.183
same,glycan array binding signal (z-score),[2],-0.175
same,glycan array binding signal (z-score),[3],-0.182
same,glycan array binding signal (z-score),[4],-0.174
same,glycan array binding signal (z-score),[5],-0.173
same,glycan array binding signal (z-score),[6],-0.186
same,glycan array binding signal (z-score),[7],-0.171
same,glycan array binding signal (z-score),GlcNAc(b1-3)Gal,-0.183
same,glycan array binding signal (z-score),[8],-0.188
same,glycan array binding signal (z-score),GlcNAc(b1-3)Gal(b1-4)Glc,-0.183
same,glycan array binding signal (z-score),[9],-0.184
same,glycan array binding signal (z-score),[10],-0.182
same,glycan array binding signal (z-score),GlcNAc(b1-3)GalNAc,-0.184
same,glycan array binding signal (z-score),GlcNAc(b1-3)Man,-0.177
same,glycan array binding signal (z-score),[11],-0.181
same,glycan array binding signal (z-score),[12],-0.167
same,glycan array binding signal (z-score),[13],-0.178
same,glycan array binding signal (z-score),[14],-0.181
same,glycan array binding signal (z-score),GlcNAc(b1-4)GlcNAc,-0.026
same,glycan array binding signal (z-score),[15],0.24
same,glycan array binding signal (z-score),[16],0.079
same,glycan array binding signal (z-score),[17],0.137
same,glycan array binding signal (z-score),[18],-0.181
same,glycan array binding signal (z-score),[19],-0.179
same,glycan array binding signal (z-score),GlcNAc(b1-6)GalNAc,-0.181
same,glycan array binding signal (z-score),GlcNAc3Prop(b1-4)GlcNAc,-0.112
same,glycan array binding signal (z-score),[20],-0.167
same,glycan array binding signal (z-score),Kdn(a2-3)Gal(b1-3)GalNAc,-0.173
same,glycan array binding signal (z-score),Kdn(a2-3)Gal(b1-3)GlcNAc,-0.182
same,glycan array binding signal (z-score),Kdn(a2-3)Gal(b1-4)Glc,-0.182
same,glycan array binding signal (z-score),Kdn(a2-3)Gal(b1-4)GlcNAc,-0.185
same,glycan array binding signal (z-score),[21],-0.172
same,glycan array binding signal (z-score),Kdn(a2-6)Gal(b1-4)GlcNAc,-0.183
same,glycan array binding signal (z-score),[22],-0.184
same,glycan array binding signal (z-score),[23],-0.181
same,glycan array binding signal (z-score),Man(a1-2)Man(a1-3)Man,-0.185
same,glycan array binding signal (z-score),[24],-0.179
same,glycan array binding signal (z-score),[25],-0.175
